# Data published in the supplement of paper PMC10126150.
# Values marked as one replicate rest on one cluster of the flow cell; about a third of the high ones do not repeat.
# Tested on: ATP
# Test: switch fluorescence ratio, 500 uM ATP over buffer (Cy3 cluster intensity, sum of 5 cycles each) (fold (ratio)); higher = stronger signal-on switching upon ATP binding; sequences stand for … in TCGTCGGCAGCGTCAGATGTGTATAAGAGACAGTTTTTTTTTTTTTTTTTTTTTTTTT…TC
# Conditions: aptamer strand: ATP DNA aptamer (quencher-CACCTGGGGGAGTATTGCGGAGGAAGG + anchor), 100 nM annealed; ATP concentration: 500 uM; one replicate
# In short: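 Clusters with intensities outside 100-1000 RFU were excluded. The remaining Cy3-labelled switching-strand clusters on a modified Illumina MiSeq flow-cell had been annealed to 100 nM quencher-labelled ATP aptamer and imaged in selection buffer, then after 15 min with 500 uM ATP at 22 °C, for five cycles separated by NaOH stripping and re-annealing. The fluorescence ratio, averaged per switch-domain sequence, is each cluster's summed target-cycle Cy3 intensity over its summed buffer-cycle Cy3 intensity.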
# 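Note: ATP exposure 15 min at 22 °C before imaging.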
row,Sequence,switch fluorescence ratio
1,CACGGCCGGG,1.02
2,CACGGCGGTG,0.992
3,CACGGCTCTA,1.07
4,CACGGGGCAG,1.06
5,CACGGTCAGG,1.06
6,CACGTCAGAT,1.12
7,CACGTGGTCC,0.997
8,CACGTTCATC,1.06
9,CACTAAGAGA,1.04
10,CACTAGGCGA,1
11,CACTAGGTAA,1.01
12,CACTCGAAAC,1.07
13,CACTGAGGTT,1.04
14,CACTGAGTCC,1.19
15,CACTGGAGGA,1
16,CACTGGGCT,0.941
17,CACTGGTTAG,1.03
18,CACTGTGTCC,0.98
19,CACTTATCC,0.987
20,CACTTATCCT,1.09
21,CACTTCAAAA,1
22,CACTTCAGGT,1.07
23,CACTTCATGG,1.02
24,CACTTCGCCG,1.05
25,CACTTGTGAT,0.978
26,CACTTTAGCC,1.02

row,Sequence,switch fluorescence ratio
1,CACTTTGGCA,0.987
2,CACTTTTTAG,0.986
3,CAGAACGCCC,1.65
4,CAGAACTTTC,1.1
5,CAGAAGCCC,1.02
6,CAGAAGCCGT,1.01
7,CAGAAGCTGT,1.17
8,CAGAATTATG,1.02
9,CAGACAACGC,1.06
10,CAGACCACTA,1.1
11,CAGACCATTT,0.969
12,CAGACCTTAG,0.968
13,CAGACTGATA,1.02
14,CAGACTGGTC,0.875
15,CAGACTTG,0.964
16,CAGACTTGAT,1.04
17,CAGAGAGGAT,1.02
18,CAGAGCCTCA,0.994
19,CAGAGCGAGG,1.03
20,CAGAGCTTTG,0.991
21,CAGAGTTCTT,0.994
22,CAGATACATA,1.06
23,CAGATATACG,1.02
24,CAGATATGAC,0.995
25,CAGATCCGGC,1
26,CAGATCTAGT,0.983

row,Sequence,switch fluorescence ratio
1,CAGATGAGAG,0.983
2,CAGATGCTGA,1.01
3,CAGATGGAGT,0.975
4,CAGATTGGCG,1.12
5,CAGCACAGAG,1.05
6,CAGCACAGGT,1.5
7,CAGCACTCAG,1.05
8,CAGCAGCACG,1.41
9,CAGCAGCATC,3.43
10,CAGCAGGGGA,1.03
11,CAGCAGGTTA,1.09
12,CAGCATGCCA,0.99
13,CAGCATTCTC,2.68
14,CAGCCAGCGG,1.04
15,CAGCCATTCC,1.75
16,CAGCCCGCCG,1.03
17,CAGCCCTTAT,1.04
18,CAGCCGCTAG,2.87
19,CAGCCTAAGC,0.991
20,CAGCCTTACA,1.09
21,CAGCGATGGC,1.13
22,CAGCGATTGT,1.01
23,CAGCGCCTTG,0.971
24,CAGCGGATTA,1.01
25,CAGCGGGAAC,1.13
26,CAGCGTATTA,1.02

row,Sequence,switch fluorescence ratio
1,CAGCGTTTTT,0.995
2,CAGCTAAGTC,1.01
3,CAGCTACGGG,1.07
4,CAGCTCATTT,0.982
5,CAGCTCGC,1.02
6,CAGCTCGGGG,0.986
7,CAGCTCTAAA,1.05
8,CAGCTGCAC,2.81
9,CAGCTGTGGC,0.986
10,CAGCTTACGT,1.05
11,CAGGAACGAA,1.01
12,CAGGAACTAA,0.97
13,CAGGACAGGT,0.998
14,CAGGACCGTA,1.03
15,CAGGACTAAA,1.01
16,CAGGACTGAG,1.02
17,CAGGATAATA,1.01
18,CAGGATGAAA,1.02
19,CAGGATGGC,1.01
20,CAGGCATCGT,0.984
21,CAGGCATGAT,1.02
22,CAGGCCAGAT,0.982
23,CAGGCCCTG,0.993
24,CAGGCCGTTG,0.972
25,CAGGCTTGGA,0.959
26,CAGGGACGAC,1.06

row,Sequence,switch fluorescence ratio
1,CAGGGCAGGA,1.03
2,CAGGGCCCAG,1.03
3,CAGGGCTCGA,1.02
4,CAGGGCTGCA,1.01
5,CAGGGGATGA,0.999
6,CAGGGGCATG,1.22
7,CAGGGGCCTG,1.04
8,CAGGGGTCCC,1
9,CAGGGGTG,1.09
10,CAGGGGTGAA,1.01
11,CAGGGTCAAC,0.957
12,CAGGTACACC,1.03
13,CAGGTATTCG,1.05
14,CAGGTCACTT,1.04
15,CAGGTGAGCT,1.43
16,CAGGTGGCTC,1.09
17,CAGGTTAAA,0.957
18,CAGGTTCTTT,0.994
19,CAGTAAACCG,0.988
20,CAGTACCAAT,1.08
21,CAGTACGGC,1.07
22,CAGTACTCGC,1.18
23,CAGTAGACAA,1.41
24,CAGTAGTTAG,0.983
25,CAGTATAGCT,1.04
26,CAGTATGGAT,0.975

row,Sequence,switch fluorescence ratio
1,CAGTATTACA,1
2,CAGTATTTCG,0.983
3,CAGTCAAAGA,1.02
4,CAGTCAAGGC,1.31
5,CAGTCCTATT,0.981
6,CAGTCGATCG,0.965
7,CAGTCTCTTC,1.02
8,CAGTGCGGAT,1.06
9,CAGTGCGGTA,0.996
10,CAGTGTGACC,0.937
11,CAGTGTTAG,1.07
12,CAGTTAAGGT,1
13,CAGTTAATC,1.02
14,CAGTTACCGC,1.12
15,CAGTTCACAA,1.04
16,CAGTTCGGGC,0.98
17,CAGTTGACTG,1.02
18,CAGTTGGTCG,1.05
19,CAGTTTAAAA,0.974
20,CAGTTTCCGG,1.02
21,CAGTTTGGCA,1.02
22,CAGTTTTGTG,0.99
23,CATAAACATC,1.03
